{"source": "a collection of fitness landscapes (doi:10.1016/j.celrep.2020.107928)", "parents": {"B1": {"name": "Caulobacter ParB omega fusion; a variant is named by its letters at X, in order, B8GW30 (parent)", "chain": "MESVVVGEPGMSEGRRGLGRGLSALLGEVDAAPAQAPGEQLGGSREAPIEILQRNPDQPRRTFREEDLEDLSNSIREKGVLQPILVRPSPDTAGEYQIVAGERAWRAAQRAGLKTVPIMVRELDDLAVLEIGIIENVQRADLNVLEEALSYKVLMEKFERTQENIAQTIGKSXSHVANXMRLLXLPDEVQSYLVSGELTAXHARAIAAAADPVALAKQIIEGGLSVRETEALARKAPNLSAGKSKGGRPPRVKDTDTQALESDLSSVLGLDVSIDHRGSTGTLTITYATLEQLDDLCNRLTRGI"}}, "note": "In all, about 81,000 sequences were measured (“one-hybrid fitness for binding parS DNA”: median about -0.17, highest 2% from about 0.51 on). Some of the results follow."}
{"variants_of": "B1", "test": "one-hybrid fitness for binding parS DNA (scaled: cognate 1, non-cognate 0); higher = stronger binding", "conditions": "with parS DNA site", "procedure,_shortened": "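In E. coli USO, a HIS3 reporter with its site placed 19 bp from the promoter was used to select Caulobacter ParB variants randomised at four specificity codons. Growth lasted 48 hours at 37°C on histidine-free M9 containing 0.1 mM IPTG and 5 mM 3-AT. Fitness was taken as the log change in variant-to-wild-type read ratio from Illumina sequencing of pre- and post-selection plasmids, rescaled between the non-cognate and cognate sites.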"}
{"variant": "KYHT", "one-hybrid fitness for binding parS DNA": "≤ 0.2"}
{"variant": "MYHV", "one-hybrid fitness for binding parS DNA": "≤ 0.2"}
{"variant": "WFRG", "one-hybrid fitness for binding parS DNA": "≤ 0.2"}
{"variant": "SVGK", "one-hybrid fitness for binding parS DNA": "≤ 0.2"}
{"variant": "MASR", "one-hybrid fitness for binding parS DNA": "≤ 0.2"}
{"variant": "YRFY", "one-hybrid fitness for binding parS DNA": "≤ 0.2"}
{"variant": "CRDT", "one-hybrid fitness for binding parS DNA": "≤ 0.2"}
{"variant": "QKIA", "one-hybrid fitness for binding parS DNA": "≤ 0.2"}
{"variant": "PCYS", "one-hybrid fitness for binding parS DNA": "≤ 0.2"}
{"variant": "DLMC", "one-hybrid fitness for binding parS DNA": "≤ 0.2"}
{"variant": "WRNC", "one-hybrid fitness for binding parS DNA": "≤ 0.2"}
{"variant": "YSKR", "one-hybrid fitness for binding parS DNA": "≤ 0.2"}
{"variant": "RFRC", "one-hybrid fitness for binding parS DNA": 0.969}
{"variant": "ESQH", "one-hybrid fitness for binding parS DNA": 0.412}
{"variant": "YAPF", "one-hybrid fitness for binding parS DNA": "≤ 0.2"}
{"variant": "DISW", "one-hybrid fitness for binding parS DNA": "≤ 0.2"}
{"variant": "PTMF", "one-hybrid fitness for binding parS DNA": "≤ 0.2"}
{"variant": "ISMS", "one-hybrid fitness for binding parS DNA": "≤ 0.2"}
{"variant": "HYWT", "one-hybrid fitness for binding parS DNA": "≤ 0.2"}
{"variant": "ITLG", "one-hybrid fitness for binding parS DNA": "≤ 0.2"}
{"variant": "RDPK", "one-hybrid fitness for binding parS DNA": "≤ 0.2"}
{"variant": "DASY", "one-hybrid fitness for binding parS DNA": "≤ 0.2"}
{"variant": "KLLD", "one-hybrid fitness for binding parS DNA": "≤ 0.2"}
{"variant": "DPFR", "one-hybrid fitness for binding parS DNA": "≤ 0.2"}
{"variant": "FQTS", "one-hybrid fitness for binding parS DNA": "≤ 0.2"}
{"variant": "HQTL", "one-hybrid fitness for binding parS DNA": "≤ 0.2"}
{"variant": "QIVR", "one-hybrid fitness for binding parS DNA": "≤ 0.2"}
{"variant": "QIRQ", "one-hybrid fitness for binding parS DNA": "≤ 0.2"}
{"variant": "QGSN", "one-hybrid fitness for binding parS DNA": "≤ 0.2"}
{"variant": "PLDS", "one-hybrid fitness for binding parS DNA": "≤ 0.2"}
{"variant": "RFEN", "one-hybrid fitness for binding parS DNA": 0.342}
{"variant": "YYRE", "one-hybrid fitness for binding parS DNA": "≤ 0.2"}
{"variant": "GDKT", "one-hybrid fitness for binding parS DNA": "≤ 0.2"}
{"variant": "CCAK", "one-hybrid fitness for binding parS DNA": "≤ 0.2"}
{"variant": "QTEE", "one-hybrid fitness for binding parS DNA": "≤ 0.2"}
{"variant": "VPAT", "one-hybrid fitness for binding parS DNA": "≤ 0.2"}
{"variant": "AWSH", "one-hybrid fitness for binding parS DNA": "≤ 0.2"}
{"variant": "AVFD", "one-hybrid fitness for binding parS DNA": "≤ 0.2"}
{"variant": "DERT", "one-hybrid fitness for binding parS DNA": "≤ 0.2"}
{"variant": "RMSE", "one-hybrid fitness for binding parS DNA": "≤ 0.2"}
{"variant": "VPKT", "one-hybrid fitness for binding parS DNA": "≤ 0.2"}
{"variant": "ISKI", "one-hybrid fitness for binding parS DNA": "≤ 0.2"}
{"variant": "PHSP", "one-hybrid fitness for binding parS DNA": "≤ 0.2"}
{"variant": "NEWR", "one-hybrid fitness for binding parS DNA": "≤ 0.2"}
{"variant": "RGII", "one-hybrid fitness for binding parS DNA": "≤ 0.2"}
{"variant": "YYSP", "one-hybrid fitness for binding parS DNA": "≤ 0.2"}
{"variant": "TACF", "one-hybrid fitness for binding parS DNA": "≤ 0.2"}
{"variant": "SSDP", "one-hybrid fitness for binding parS DNA": "≤ 0.2"}
{"variant": "QWRF", "one-hybrid fitness for binding parS DNA": "≤ 0.2"}
{"variant": "RCIA", "one-hybrid fitness for binding parS DNA": 0.551}
{"variant": "LLRS", "one-hybrid fitness for binding parS DNA": "≤ 0.2"}
{"variant": "FTRT", "one-hybrid fitness for binding parS DNA": "≤ 0.2"}
{"variant": "PYRC", "one-hybrid fitness for binding parS DNA": "≤ 0.2"}
{"variant": "THAD", "one-hybrid fitness for binding parS DNA": "≤ 0.2"}
{"variant": "MLTK", "one-hybrid fitness for binding parS DNA": "≤ 0.2"}
{"variant": "KSQH", "one-hybrid fitness for binding parS DNA": "≤ 0.2"}
{"variant": "NTPG", "one-hybrid fitness for binding parS DNA": "≤ 0.2"}
{"variant": "LLIM", "one-hybrid fitness for binding parS DNA": "≤ 0.2"}
{"variant": "MPFK", "one-hybrid fitness for binding parS DNA": "≤ 0.2"}
{"variant": "FYTG", "one-hybrid fitness for binding parS DNA": "≤ 0.2"}
{"variant": "HIFY", "one-hybrid fitness for binding parS DNA": "≤ 0.2"}
{"variant": "EIFS", "one-hybrid fitness for binding parS DNA": "≤ 0.2"}
{"variant": "VQST", "one-hybrid fitness for binding parS DNA": "≤ 0.2"}
{"variant": "QAMN", "one-hybrid fitness for binding parS DNA": "≤ 0.2"}
{"variant": "AICT", "one-hybrid fitness for binding parS DNA": "≤ 0.2"}
{"variant": "ISPS", "one-hybrid fitness for binding parS DNA": "≤ 0.2"}
{"variant": "INTF", "one-hybrid fitness for binding parS DNA": "≤ 0.2"}
{"variant": "QALQ", "one-hybrid fitness for binding parS DNA": "≤ 0.2"}
{"variant": "PCDG", "one-hybrid fitness for binding parS DNA": "≤ 0.2"}
{"variant": "FFYG", "one-hybrid fitness for binding parS DNA": "≤ 0.2"}
{"variant": "FRRW", "one-hybrid fitness for binding parS DNA": "≤ 0.2"}
{"variant": "QKTW", "one-hybrid fitness for binding parS DNA": "≤ 0.2"}
{"variant": "GHNQ", "one-hybrid fitness for binding parS DNA": "≤ 0.2"}
{"variant": "RHMS", "one-hybrid fitness for binding parS DNA": 0.966}
{"variant": "LYCL", "one-hybrid fitness for binding parS DNA": "≤ 0.2"}
{"variant": "QCTG", "one-hybrid fitness for binding parS DNA": "≤ 0.2"}
{"variant": "SPTC", "one-hybrid fitness for binding parS DNA": "≤ 0.2"}
{"variant": "HDVL", "one-hybrid fitness for binding parS DNA": "≤ 0.2"}
{"variant": "TIRN", "one-hybrid fitness for binding parS DNA": "≤ 0.2"}
{"variant": "IYHD", "one-hybrid fitness for binding parS DNA": "≤ 0.2"}
{"variant": "DQRS", "one-hybrid fitness for binding parS DNA": "≤ 0.2"}
{"variant": "RWSV", "one-hybrid fitness for binding parS DNA": "≤ 0.2"}
{"variant": "GSCI", "one-hybrid fitness for binding parS DNA": "≤ 0.2"}
{"variant": "LPHC", "one-hybrid fitness for binding parS DNA": "≤ 0.2"}
{"variant": "QNCG", "one-hybrid fitness for binding parS DNA": "≤ 0.2"}
{"variant": "QVAS", "one-hybrid fitness for binding parS DNA": "≤ 0.2"}
{"variant": "KRTE", "one-hybrid fitness for binding parS DNA": "≤ 0.2"}
{"variant": "CIEY", "one-hybrid fitness for binding parS DNA": "≤ 0.2"}
{"variant": "MSGT", "one-hybrid fitness for binding parS DNA": "≤ 0.2"}
{"variant": "HGML", "one-hybrid fitness for binding parS DNA": "≤ 0.2"}
{"variant": "RGPY", "one-hybrid fitness for binding parS DNA": "≤ 0.2"}
{"variant": "KTLM", "one-hybrid fitness for binding parS DNA": "≤ 0.2"}
{"variant": "PPAD", "one-hybrid fitness for binding parS DNA": "≤ 0.2"}
{"variant": "SENC", "one-hybrid fitness for binding parS DNA": "≤ 0.2"}
{"variant": "GNPA", "one-hybrid fitness for binding parS DNA": "≤ 0.2"}
{"variant": "HMVY", "one-hybrid fitness for binding parS DNA": "≤ 0.2"}
{"variant": "KARR", "one-hybrid fitness for binding parS DNA": "≤ 0.2"}
{"variant": "PISL", "one-hybrid fitness for binding parS DNA": "≤ 0.2"}
{"variant": "ARNK", "one-hybrid fitness for binding parS DNA": "≤ 0.2"}
{"variant": "MPLH", "one-hybrid fitness for binding parS DNA": "≤ 0.2"}
{"variant": "YKFV", "one-hybrid fitness for binding parS DNA": "≤ 0.2"}
{"variant": "FSYG", "one-hybrid fitness for binding parS DNA": "≤ 0.2"}
{"variant": "QQRV", "one-hybrid fitness for binding parS DNA": "≤ 0.2"}
{"variant": "YSHN", "one-hybrid fitness for binding parS DNA": "≤ 0.2"}
{"variant": "QSRD", "one-hybrid fitness for binding parS DNA": "≤ 0.2"}
{"variant": "RTVG", "one-hybrid fitness for binding parS DNA": 0.979}
{"variant": "IHNV", "one-hybrid fitness for binding parS DNA": "≤ 0.2"}
{"variant": "VYAW", "one-hybrid fitness for binding parS DNA": "≤ 0.2"}
{"variant": "IIKT", "one-hybrid fitness for binding parS DNA": "≤ 0.2"}
{"variant": "SAHM", "one-hybrid fitness for binding parS DNA": "≤ 0.2"}
{"variant": "SYSN", "one-hybrid fitness for binding parS DNA": "≤ 0.2"}
{"variant": "FPGV", "one-hybrid fitness for binding parS DNA": "≤ 0.2"}
{"variant": "TIGT", "one-hybrid fitness for binding parS DNA": "≤ 0.2"}
{"variant": "FTKG", "one-hybrid fitness for binding parS DNA": "≤ 0.2"}
{"variant": "AEAR", "one-hybrid fitness for binding parS DNA": "≤ 0.2"}
{"variant": "YTKV", "one-hybrid fitness for binding parS DNA": "≤ 0.2"}
{"variant": "RNAI", "one-hybrid fitness for binding parS DNA": "≤ 0.2"}
{"variant": "RHHH", "one-hybrid fitness for binding parS DNA": "≤ 0.2"}
{"variant": "RMWD", "one-hybrid fitness for binding parS DNA": "≤ 0.2"}
{"variant": "NDYF", "one-hybrid fitness for binding parS DNA": "≤ 0.2"}
{"variant": "ADLY", "one-hybrid fitness for binding parS DNA": "≤ 0.2"}
{"variant": "HMFT", "one-hybrid fitness for binding parS DNA": "≤ 0.2"}
{"variant": "SPAD", "one-hybrid fitness for binding parS DNA": "≤ 0.2"}
{"variant": "VLSF", "one-hybrid fitness for binding parS DNA": "≤ 0.2"}
{"variant": "KMTG", "one-hybrid fitness for binding parS DNA": "≤ 0.2"}
{"variant": "VVHA", "one-hybrid fitness for binding parS DNA": "≤ 0.2"}
{"variant": "ATCV", "one-hybrid fitness for binding parS DNA": "≤ 0.2"}
{"variant": "DMLL", "one-hybrid fitness for binding parS DNA": "≤ 0.2"}
{"variant": "RMQC", "one-hybrid fitness for binding parS DNA": 1.02}
{"variant": "RAQP", "one-hybrid fitness for binding parS DNA": "≤ 0.2"}
{"variant": "PERM", "one-hybrid fitness for binding parS DNA": "≤ 0.2"}
{"variant": "CRLT", "one-hybrid fitness for binding parS DNA": "≤ 0.2"}
{"variant": "FNPG", "one-hybrid fitness for binding parS DNA": "≤ 0.2"}
{"variant": "SLVF", "one-hybrid fitness for binding parS DNA": "≤ 0.2"}
{"variant": "NVST", "one-hybrid fitness for binding parS DNA": "≤ 0.2"}
{"variant": "PSKT", "one-hybrid fitness for binding parS DNA": "≤ 0.2"}
{"variant": "MACV", "one-hybrid fitness for binding parS DNA": "≤ 0.2"}
{"variant": "NPKS", "one-hybrid fitness for binding parS DNA": "≤ 0.2"}
{"variant": "NFTR", "one-hybrid fitness for binding parS DNA": "≤ 0.2"}
{"variant": "GIWT", "one-hybrid fitness for binding parS DNA": "≤ 0.2"}
{"variant": "CGAT", "one-hybrid fitness for binding parS DNA": "≤ 0.2"}
{"variant": "YSCR", "one-hybrid fitness for binding parS DNA": "≤ 0.2"}
{"variant": "PESF", "one-hybrid fitness for binding parS DNA": "≤ 0.2"}
{"variant": "PQMI", "one-hybrid fitness for binding parS DNA": "≤ 0.2"}
{"variant": "KTRM", "one-hybrid fitness for binding parS DNA": "≤ 0.2"}
{"variant": "PVRG", "one-hybrid fitness for binding parS DNA": "≤ 0.2"}
{"variant": "HNMV", "one-hybrid fitness for binding parS DNA": "≤ 0.2"}
{"variant": "WMIT", "one-hybrid fitness for binding parS DNA": "≤ 0.2"}
{"variant": "SKLH", "one-hybrid fitness for binding parS DNA": "≤ 0.2"}
{"variant": "INQF", "one-hybrid fitness for binding parS DNA": "≤ 0.2"}
{"variant": "RCHT", "one-hybrid fitness for binding parS DNA": 0.906}
{"variant": "MVPA", "one-hybrid fitness for binding parS DNA": "≤ 0.2"}
{"variant": "PLKC", "one-hybrid fitness for binding parS DNA": "≤ 0.2"}
